Laboratory results from the supplement of paper PMC12217912.
This is one part of the list. Sequences were assembled here from the parent chain. Inactive controls read about 0.05.

B1: TEV protease; numbered along this chain (parent)
chain: MGESLFKGPRDYNPISSSICHLTNESDGHTTSLYGIGFGPFIITNKHLFRRNNGTLVVQSLHGVFKVKDTTTLQQHLVDGRDMIIIRMPKDFPPFPQKLKFREPQREERICLVTTNFQTKSMSSMVSDTSCTFPSGDGIFWKHWIQTKDGQCGSPLVSTRDGFIVGIHSASNFTNTNNYFTSVPKNFMELLTNQEAQQWVSGWRLNADSVLWGGHKVFMVKPEEPFQPVKEATQL

Variants of: B1
Experiment: raw area under fraction-flipped curve 0-4 h after induction (AUC4h, not background-subtracted), DNA-recorder readout of cleavage of the substrate (dimensionless); higher = more cleavage of the substrate by the protease variant
Conditions: temperature: 34 °C; time window: 0-4 h after rhamnose induction
Procedure: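 In vivo DNA recorder in E. coli TOP10(DE3) ΔrhaA at 34 °C. Each TEVp single-site mutant (parent TEVp 0) is paired with a single-site variant of the 7-mer TEVs (canonical ENLYFQ|S). The substrate sits between flexible linkers in a Bxb1-sfGFP-TEVs-SsrA fusion, so cleavage stabilises Bxb1 and speeds flipping of a recombination array, read by NGS. The value is the raw area under the fraction-flipped curve over 0-4 h after rhamnose induction (AUC4h), with ≥20 reads per time point. It is not background-subtracted; inactive controls average about 0.047.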
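Also: Bxb1 expression induced with 0.2% (w/v) L-rhamnose at OD600 near 0.5, cultures sampled hourly, flipped fraction per protease–substrate barcode pair counted by paired-end Illumina sequencing.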

Row | Variant | area with substrate ENAYFQS | area with substrate ENDYFQS | area with substrate ENEYFQS | area with substrate ENNYFQS | area with substrate ENQYFQS | area with substrate ENRYFQS | area with substrate ENVYFQS | area with substrate ENWYFQS | area with substrate ENCYFQS | area with substrate ENHYFQS | area with substrate ENKYFQS | area with substrate ENMYFQS | area with substrate ENPYFQS | area with substrate ENSYFQS | area with substrate ENTYFQS | area with substrate ENYYFQS | area with substrate ENFYFQS | area with substrate ENIYFQS | area with substrate ENGYFQS
1 | R81E | 0.0468 | 0.0602 | 0.0618 | 0.0637 | 0.0527 | 0.0627 | 0.064 | 0.0516 |  |  |  |  |  |  |  |  |  |  | 
2 | G214A | 0.0589 | 0.0561 | 0.0635 | 0.0561 | 0.0447 | 0.0579 | 0.0743 | 0.0522 | 0.0639 | 0.0086 | 0.0665 | 0.059 | 0.0606 | 0.0673 | 0.0565 | 0.0632 |  |  | 
3 | D149N | 0.0664 | 0.0264 | 0.0495 | 0.0605 | 0.073 | 0.0718 | 0.0737 | 0.0538 | 0.0616 |  | 0.0407 | 0.0657 |  | 0.0482 | 0.0588 | 0.0539 | 0.0533 | 0.0968 | 
4 | D149K | 0.0757 | 0.0617 | 0.0509 | 0.0634 | 0.0622 | 0.0656 | 0.0685 | 0.0507 | 0.0653 | 0.0606 |  |  | 0.0589 |  | 0.0421 | 0.0553 |  | 0.0604 | 0.0746
5 | K46Q | 0.0424 | 0.0542 | 0.058 | 0.0584 | 0.0488 | 0.0569 |  |  | 0.069 | 0.0515 |  | 0.0638 |  | 0.0795 |  |  | 0.0568 |  | 0.0915
6 | K46Y | 0.0459 |  | 0.0553 | 0.0594 | 0.0497 | 0.0643 | 0.0596 |  | 0.06 | 0.0456 | 0.0475 | 0.0644 |  | 0.0548 | 0.0487 |  | 0.0542 |  | 0.0693
7 | V183Y | 0.0622 | 0.0551 | 0.0564 | 0.0581 | 0.0513 | 0.0578 | 0.0581 | 0.0516 | 0.0543 |  | 0.0553 |  |  | 0.0596 |  | 0.0383 | 0.0434 |  | 0.0719
8 | K90L | 0.071 | 0.0538 | 0.0683 |  | 0.0641 | 0.0596 | 0.0916 |  | 0.0535 | 0.0602 |  |  |  | 0.0541 | 0.0671 |  |  | 0.0979 | 0.0604
9 | T114V |  | 0.059 | 0.0647 | 0.0505 | 0.0649 | 0.0648 | 0.0659 | 0.064 | 0.0728 |  | 0.0578 |  | 0.0597 | 0.0537 | 0.0654 | 0.0551 | 0.0501 | 0.113 | 0.0447
10 | D82Q | 0.0705 | 0.0542 | 0.0551 | 0.0642 |  | 0.0753 | 0.0588 |  | 0.0621 | 0.0536 | 0.072 |  | 0.0531 | 0.0534 |  | 0.0629 | 0.0548 |  | 0.0651
11 | N52H | 0.0566 | 0.0515 |  | 0.0648 |  | 0.054 | 0.057 |  | 0.0539 |  | 0.0556 | 0.0856 | 0.0445 | 0.0717 | 0.0569 |  | 0.0647 | 0.0826 | 0.0606
12 | N52R | 0.0785 |  | 0.0579 | 0.0537 | 0.0621 | 0.0502 | 0.0701 |  | 0.0698 | 0.057 |  |  | 0.0425 | 0.0517 |  |  |  |  | 0.0614
13 | K98E | 0.0627 | 0.0585 | 0.0551 | 0.0706 | 0.0732 | 0.0512 | 0.091 | 0.0582 |  |  | 0.0627 |  |  | 0.0618 | 0.0284 |  | 0.121 |  | 0.0516
